Assay results published in the supplement of paper PMC4967469.

Experiments:
Assay in all cases: Viability of human cancer cell lines after 72 h of drug (GDSC screen)
Erlotinib = compound: C#Cc1cccc(Nc2ncnc3cc(OCCOC)c(OCCOC)cc23)c1 [Erlotinib]; conditions: top dose 2 µM
Description: (§1)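 Human cancer cell lines in 384-well plates, medium with 10% serum, drug for 72 h over a 256-fold dose range (nine 2-fold or five 4-fold steps up to the top dose). Adherent lines were fixed and stained with the nucleic acid dye Syto60, suspension lines read with resazurin; signal relative to control wells, capped at 0 and 100%. One two-parameter sigmoid per drug and line, fitted in a mixed model over all curves with the slope shared within a line.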

QL-XI-92 = compound: C=CC(=O)Nc1cc(NC(=O)c2ccc(C)c(NC(=O)c3ccno3)c2)cc(C(F)(F)F)c1 [QL-XI-92]; conditions: top dose 10.24 µM; top dose inferred
Description: as §1

Vinorelbine = compound: CCC1=C[C@@H]2CN(C1)Cc1c([nH]c3ccccc13)[C@@](C(=O)OC)(c1cc3c(cc1OC)N(C)[C@H]1[C@@](O)(C(=O)OC)[C@H](OC(C)=O)[C@]4(CC)C=CCN5CC[C@]31[C@@H]54)C2 [Vinorelbine]; conditions: top dose 0.064 µM; top dose inferred
Description: as §1

AG-014699 = compound: CNCc1ccc(-c2[nH]c3cc(F)cc4c3c2CCNC4=O)cc1 [AG-014699]; conditions: top dose 5 µM; top dose inferred
Description: as §1

XL-184 = compound: COc1cc2nccc(Oc3ccc(NC(=O)C4(C(=O)Nc5ccc(F)cc5)CC4)cc3)c2cc1OC [XL-184]; conditions: top dose 5.12 µM; top dose inferred
Description: as §1

WHI-P97 = compound: COc1cc2ncnc(Nc3cc(Br)c(O)c(Br)c3)c2cc1OC [WHI-P97]; conditions: top dose 10.24 µM; top dose inferred
Description: as §1

Gefitinib = compound: COc1cc2ncnc(Nc3ccc(F)c(Cl)c3)c2cc1OCCCN1CCOCC1 [Gefitinib]; conditions: top dose 0.5 µM
Description: as §1

Phenformin = compound: N=C(N)NC(=N)NCCc1ccccc1 [Phenformin]; conditions: top dose 4000 µM; top dose inferred
Description: as §1

S-Trityl-L-cysteine = compound: N[C@@H](CSC(c1ccccc1)(c1ccccc1)c1ccccc1)C(=O)O [S-Trityl-L-cysteine]; conditions: top dose 5.12 µM; top dose inferred
Description: as §1

EHT 1864 = compound: O=c1cc(CN2CCOCC2)occ1OCCCCCSc1ccnc2cc(C(F)(F)F)ccc12 [EHT 1864]; conditions: top dose 10 µM; top dose inferred
Description: as §1

NU-7441 = compound: O=c1cc(N2CCOCC2)oc2c(-c3cccc4c3sc3ccccc34)cccc12 [NU-7441]; conditions: top dose 2 µM; top dose inferred
Description: as §1

| Cell Line | AUC (Erlotinib) | IC50 (Erlotinib) [nM] | AUC (QL-XI-92) | IC50 (QL-XI-92) [µM] | AUC (Vinorelbine) | IC50 (Vinorelbine) [nM] | AUC (AG-014699) | IC50 (AG-014699) [µM] | AUC (XL-184) | IC50 (XL-184) [µM] | AUC (WHI-P97) | IC50 (WHI-P97) [µM] | AUC (Gefitinib) | IC50 (Gefitinib) [nM] | AUC (Phenformin) | IC50 (Phenformin) [µM] | AUC (S-Trityl-L-cysteine) | IC50 (S-Trityl-L-cysteine) [nM] | AUC (EHT 1864) | IC50 (EHT 1864) [µM] | AUC (NU-7441) | IC50 (NU-7441) [nM] |
| --- | --- | --- | --- | --- | --- | --- | --- | --- | --- | --- | --- | --- | --- | --- | --- | --- | --- | --- | --- | --- | --- | --- |
| 8-MG-BA (glioma, adherent) | 0.98 | > 2000 | 0.864 | 8.02 | 0.373 | 1.83 | 0.874 | 4.34 | 0.937 | > 5.12 | 0.969 | > 10.2 | 0.964 | > 500 | 0.695 | 849 | 0.912 | > 5120 | 0.94 | > 10 | 0.949 | > 2000 |
| A388 (skin, adherent) | 0.775 | 910 | 0.928 | > 10.2 | 0.506 | 4.17 | 0.976 | > 5 | 0.941 | > 5.12 | 0.926 | > 10.2 | 0.857 | > 500 | 0.955 | > 4000 | 0.635 | 799 | 0.978 | > 10 | 0.962 | > 2000 |
| AMO-1 (haematopoietic neoplasm, suspension) | 0.991 | > 2000 | 0.968 | > 10.2 | 0.601 | 7.27 | 0.991 | > 5 | 0.957 | > 5.12 | 0.966 | > 10.2 | 0.989 | > 500 | 0.512 | 269 | 0.652 | 791 | 0.981 | > 10 | 0.991 | > 2000 |
| BB30-HNC (head and neck, adherent) | 0.535 | 155 | 0.961 | > 10.2 | 0.281 | 0.976 | 0.948 | > 5 | 0.873 | 4.72 | 0.882 | > 10.2 | 0.81 | 256 | 0.532 | 304 | 0.629 | 719 | 0.954 | > 10 | 0.937 | > 2000 |
| BC-1 (B-cell lymphoma, suspension) | 0.991 | > 2000 | 0.897 | 9.36 | 0.641 | 9.17 | 0.985 | > 5 | 0.931 | > 5.12 | 0.971 | > 10.2 | 0.976 | > 500 | 0.61 | 476 | 0.887 | 4240 | 0.913 | > 10 | 0.982 | > 2000 |
| COLO-824 (breast, adherent) | 0.987 | > 2000 | 0.975 | > 10.2 | 0.805 | 33.2 | – | – | 0.918 | > 5.12 | 0.983 | > 10.2 | 0.985 | > 500 | 0.843 | 2910 | 0.973 | > 5120 | 0.965 | > 10 | 0.988 | > 2000 |

The IC50 comes from the fitted curve, where viability falls to half of the control; fits outside the tested doses are given as limits. AUC, from the same fit, is the share of area under the viability curve across the 256-fold dose range; values near 1 show little effect. For some of these results: An inferred top dose is not printed in the source and was worked back from the curve model.
